Earlier results in patent US20230312752A1 (Brown University, priority 2021, published 2023).

Conditions: intravenous or oral route; cited from earlier work

For `C[C@H]1O[C@H](O[C@H]2[C@H](O)[C@@H](O)[C@@H](O)[C@H](O)[C@@H]2O)[C@@H](N)C[C@@H]1NC(=N)C(=O)O` [Kasugamycin, 2-amino-2-[(2R,3S,5S,6R)-5-amino-2-methyl-6-[(2R,3S,5S,6S)-2,3,4,5,6-pentahydroxycyclohexyl]oxyoxan-3-yl]iminoacetic acid], the toxicity in man is given as “minimal toxicity”.
